Experimental data taken from PubChem BioAssay (Tox21).
Values joined by “and” are separate entries in the source; they are usually repeats but may differ in a detail not shown here. Equal values may be shown once. The shares of active, inactive and inconclusive entries below differ from those in the screen. For some of these results: Potencies beside an inconclusive call are fits to weak or partial responses and may not hold up. A structure can be active in one record and inactive in another. Active and inactive are the calls of the source. Unless noted, calls come from the whole dose curve; as a rule, active = well fitted curve in the direction sought with a large enough effect in the repeat runs; inconclusive = weak or mixed curves; inactive = no such curve, though single readings can be large; an effect the other way counts as inactive or inconclusive.

What was measured:
[1] = qHTS assay to identify small molecule antagonists of the androgen receptor (AR) signaling pathway using the MDA cell line in the presence of 0.5 nM R1881 - cell viability counter screen (AID 1259242); note: potency is the fitted concentration of half-maximal effect; nearly all actives have a fitted effect of over 45% in size
Procedure, shortened: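 Live-cell protease fluorescence, CellTiter-Fluor, 30 min at 37C. Cells: MDA-kb2, 3,000/well, preincubated 5 hr. Compounds plus 0.5 nM R1881 final, 16 hr, 37C, 0% CO2.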

[2] = qHTS assay to identify small molecule agonists of the sonic hedgehog signaling (Shh) pathway - cell viability counter screen (AID 1259366); note: potency is the fitted concentration of half-maximal effect; nearly all actives have a fitted effect of over 50% in size
Procedure, shortened: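 Cytotoxicity counter screen: CellTiter-Fluor reagent added after 23 h compound exposure, then 1 h at 37C and fluorescence read. Cells were 3T3 Gli1-Luc, seeded 2,000 per well and dosed 4 h post-plating.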

[3] = qHTS assay to identify small molecule antagonists of the sonic hedgehog signaling (Shh) pathway (AID 1259369; calls by dose curve; note: potency is the fitted concentration of half-maximal effect; nearly all actives have a fitted effect of over 45% in size)
Procedure, shortened: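 Luminescence readout: firefly Luc under Gli1 response element in 3T3Gli1-Luc cells (NIH/3T3 clone). Antagonist mode, stimulation by conditioned medium; compound exposure 24hr at 37 C, 5% CO2.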

[4] = biological target: Estrogen receptor beta (Homo sapiens) (UniProt Q92731); assay: qHTS assay to identify small molecule agonists of the estrogen receptor beta (ER-beta) signaling pathway (AID 1259377; active = well fitted activation curve with a large enough effect in the signal ratio in the repeat runs, not every such curve was filed as active; inconclusive = weak or mixed curves, or effect the other way; the % refers to the signal ratio; note: potency is the fitted concentration of half-maximal effect; for activation: % is set by controls: 0 for no effect and ±100 for the full control effect); conditions: ER-beta-UAS-bla HEK293T, beta-lactamase FRET ratio, 16 h; activation: at 92.4 µM (top of the series) unless noted
Procedure, shortened: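 Ratiometric beta-lactamase FRET read-out came after 2 h substrate loading at room temperature. It followed 16 h compound treatment at 37C of GripTite HEK293T cells carrying a UAS-bla reporter, plated in 2% charcoal-stripped FBS medium.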

[5] = qHTS assay to identify small molecule antagonists of the estrogen receptor beta (ER-beta) signaling pathway - cell viability counter screen (AID 1259382); note: potency is the fitted concentration of half-maximal effect; nearly all actives have a fitted effect of over 55% in size
Procedure, shortened: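 Luminescent ATP read-out (CellTiter-Glo, 30 min, RT) taken in the same wells as the bla reporter assay. HEK293T ER-beta-UAS-bla cells in 2% charcoal-stripped FBS were exposed to compounds with 1nM E2 for 16 hr at 37C.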

[6] = biological target: Estrogen receptor (Homo sapiens) (UniProt P03372); assay: qHTS assay to identify small molecule agonists of the estrogen receptor alpha (ER-alpha) signaling pathway in the presence of an antagonist (AID 1259383; calls by dose curve; note: potency is the fitted concentration of half-maximal effect; nearly all actives have a fitted effect of over 15% in size)
Procedure, shortened: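 Luciferase luminescence (ONE-Glo, 30min at room temperature) measured in VM7Luc4E2 cells after 22hr compound exposure at 15 concentrations, with 10.0nM ICI-182,780 final present; cells express endogenous ER-alpha and carry four EREs upstream of luciferase.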

[7] = qHTS assay to identify small molecule antagonists of the sonic hedgehog signaling (Shh) pathway - cell viability counter screen (AID 1259367); note: potency is the fitted concentration of half-maximal effect; nearly all actives have a fitted effect of over 55% in size
Procedure, shortened: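 CellTiter-Fluor signal in conditioned medium-stimulated 3T3 Gli1-Luc cells, 23 hr compound exposure, 37C.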

[8] = biological target: Estrogen receptor beta (Homo sapiens) (UniProt Q92731); assay: qHTS assay to identify small molecule antagonists of the estrogen receptor beta (ER-beta) signaling pathway (AID 1259378; active = well fitted inhibition curve with a large enough effect in the signal ratio in the repeat runs, not every such curve was filed as active; inconclusive = weak or mixed curves, or effect the other way; inactive = no such curve, though single readings can be large or run the other way; the % refers to the signal ratio; note: potency is the fitted concentration of half-maximal effect; for activity, negative = inhibition: % is set by controls: 0 for no effect and ±100 for the full control effect); conditions: ER-beta-UAS-bla HEK293T, beta-lactamase FRET ratio, 16 h; activity, negative = inhibition: at 92.4 µM (top of the series) unless noted
Procedure, shortened: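 Antagonist mode: compounds added to beta-lactamase reporter HEK293T ER-beta-UAS cells stimulated with E2 (1nM final), 16 hr at 37C. LiveBLAzer B/G FRET substrate, 2 hours room temperature, fluorescence read-out.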

[9] = qHTS assay to identify small molecule agonists of the estrogen receptor beta (ER-beta) signaling pathway - cell viability counter screen (AID 1259380); note: potency is the fitted concentration of half-maximal effect; nearly all actives have a fitted effect of over 30% in size
Procedure, shortened: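 Luminescence read-out (CellTiter-Glo, 30 min, room temp) taken in the same wells as the beta-lactamase reporter assay; ER-beta-UAS-bla HEK293T cells exposed to DMSO-dissolved compounds for 16 hr at 37C in 2% charcoal-stripped FBS medium.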

[10] = qHTS assay to identify small molecule agonists of the androgen receptor (AR) signaling pathway in the presence of an antagonist - cell viability counter screen (AID 1259379); note: potency is the fitted concentration of half-maximal effect; nearly all actives have a fitted effect of over 25% in size
Procedure, shortened: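 Viability counter screen: CellTiter-Fluor fluorescence, measured in the same wells as the luciferase read-out. MDA-kb2 cells, 3,000/well, with nilutamide at 3.0uM final and compounds at 15 concentrations, 16 hr at 37C, 0% CO2.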

[11] = qHTS assay to identify small molecule HDAC inhibitors - cell viability counter screen (AID 1259365); note: potency is the fitted concentration of half-maximal effect; nearly all actives have a fitted effect of over 50% in size
Procedure, shortened: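 CellTiter-Glo luminescence (30 min, room temperature) reported viability after a 2 h compound exposure at 37 C. Cells: wild-type HCT-116, 1,500 per well, seeded the night before.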

[12] = qHTS assay to identify small molecule agonists of the estrogen receptor alpha (ER-alpha) signaling pathway in the presence of an antagonist - cell viability counter screen (AID 1259386);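 note: potency is the fitted concentration of half-maximal effect; cells exposed to compounds for 22 h at 37 °C before the viability read; nearly all actives have a fitted effect of over 30% in size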
Procedure, shortened: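 Read-out: CellTiter-Fluor fluorescence after 1hr reagent incubation, measured in the same wells as the luciferase readout. VM7Luc4E2 cells were exposed to 15 compound concentrations with 10.0nM ICI-182,780 for 22hr at 37C.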

[13] = biological target: Estrogen receptor (Homo sapiens) (UniProt P03372); assay: qHTS assay to identify small molecule antagonists of the estrogen receptor alpha (ER-alpha) signaling pathway using the BG1 cell line in the presence of 0.1 nM 17-beta-estradiol (AID 1259244); note: % is set by controls: 0 for no effect and ±100 for the full control effect; nearly all actives have a fitted effect of over 50% in size
Procedure, shortened: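 Luminescence after ONE-Glo (30 min, room temperature) measured ERE-luciferase activity in VM7Luc4E2 cells treated 22 h with compound and 0.1 nM final 17beta-estradiol as stimulator.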

[14] = qHTS assay to identify small molecule HDAC inhibitors (AID 1259364);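 note: wild-type HCT-116 cells with endogenous class I/II HDAC activity; potency is the fitted concentration of half-maximal effect; nearly all actives have a fitted effect of over 45% in size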
Procedure, shortened: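 HCT-116 (wild type), 1,500 cells/well, overnight; compound 2 hr 37C 5% CO2; HDAC-Glo I/II reagent 30 min RT; luminescence readout.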

[15] = qHTS assay to identify small molecule agonists of the sonic hedgehog signaling (Shh) pathway (AID 1259368; calls by dose curve; note: potency is the fitted concentration of half-maximal effect; nearly all actives have a fitted effect of over 15% in size)
Procedure, shortened: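 Read-out: firefly luciferase luminescence from a Gli1 response element reporter stably integrated in NIH/3T3-derived 3T3Gli1-Luc cells, measured 30 min at room temperature after reagent addition. Compound exposure lasted 24 hr at 37 C, 5% CO2.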

[16] = qHTS assay to identify small molecule agonists or antagonists of the thyroid stimulating hormone receptor (TSHR) signaling pathway - wild type cell line counter screen (AID 1259384; calls by dose curve; note: potency is the fitted concentration of half-maximal effect; for cAMP activity change: % is set by controls: 0 for no effect and ±100 for the full control effect); conditions: HEK293 wild type, cAMP HTRF counter-screen; cAMP activity change: at 92.4 µM (top of the series), stronger effect = higher value unless noted
Procedure, shortened: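 Counter screen in untransfected Hek293: compounds (15-point titration, triplicate) plus phosphodiesterase inhibitor Ro20-1724 added after 18 h plating; 30 min RT. Intracellular cAMP via competitive d2/cryptate immunoassay, 1 h incubation.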

[17] = biological target: Thyrotropin receptor (Homo sapiens) (UniProt P16473); assay: qHTS assay to identify small molecule antagonists of the thyroid stimulating hormone receptor (TSHR) signaling pathway (AID 1259385; calls by dose curve; note: nearly all actives have a fitted effect of over 20% in size; note: potency is the fitted concentration of half-maximal effect; for activity change, negative = inhibition: % is set by controls: 0 for no effect and ±100 for the full control effect); conditions: TSHR-HEK293 cAMP HTRF, TSH-stimulated antagonist mode; activity change, negative = inhibition: at 92.4 µM (top of the series) unless noted
Procedure, shortened: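 Antagonist mode: compound-treated TSHR-expressing HEK293 cells were stimulated with 1.5 ng/mL TSH (final) in presence of Ro20-1724 for 30 min at RT. HTRF cAMP detection after 1 h; each compound tested at 15 concentrations, triplicate.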
Tags give direction and shape of the fitted curve or compound fluorescence and quenching.

UniProt Q92731, sequence (Q92731 whole entry, looked up): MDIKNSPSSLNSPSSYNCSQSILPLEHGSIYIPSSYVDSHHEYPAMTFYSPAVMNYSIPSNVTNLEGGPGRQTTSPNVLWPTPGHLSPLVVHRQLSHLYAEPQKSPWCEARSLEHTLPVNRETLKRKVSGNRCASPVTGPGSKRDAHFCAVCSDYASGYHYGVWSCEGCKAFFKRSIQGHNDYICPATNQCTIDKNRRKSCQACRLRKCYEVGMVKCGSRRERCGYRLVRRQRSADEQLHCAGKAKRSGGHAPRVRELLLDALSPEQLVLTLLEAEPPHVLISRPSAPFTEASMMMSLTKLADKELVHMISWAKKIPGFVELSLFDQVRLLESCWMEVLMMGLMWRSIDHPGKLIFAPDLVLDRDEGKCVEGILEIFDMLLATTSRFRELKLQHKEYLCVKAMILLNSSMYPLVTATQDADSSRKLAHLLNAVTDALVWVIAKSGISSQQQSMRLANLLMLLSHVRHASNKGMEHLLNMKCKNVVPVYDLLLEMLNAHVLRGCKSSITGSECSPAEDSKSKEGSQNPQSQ
UniProt P03372, sequence (P03372 whole entry, looked up): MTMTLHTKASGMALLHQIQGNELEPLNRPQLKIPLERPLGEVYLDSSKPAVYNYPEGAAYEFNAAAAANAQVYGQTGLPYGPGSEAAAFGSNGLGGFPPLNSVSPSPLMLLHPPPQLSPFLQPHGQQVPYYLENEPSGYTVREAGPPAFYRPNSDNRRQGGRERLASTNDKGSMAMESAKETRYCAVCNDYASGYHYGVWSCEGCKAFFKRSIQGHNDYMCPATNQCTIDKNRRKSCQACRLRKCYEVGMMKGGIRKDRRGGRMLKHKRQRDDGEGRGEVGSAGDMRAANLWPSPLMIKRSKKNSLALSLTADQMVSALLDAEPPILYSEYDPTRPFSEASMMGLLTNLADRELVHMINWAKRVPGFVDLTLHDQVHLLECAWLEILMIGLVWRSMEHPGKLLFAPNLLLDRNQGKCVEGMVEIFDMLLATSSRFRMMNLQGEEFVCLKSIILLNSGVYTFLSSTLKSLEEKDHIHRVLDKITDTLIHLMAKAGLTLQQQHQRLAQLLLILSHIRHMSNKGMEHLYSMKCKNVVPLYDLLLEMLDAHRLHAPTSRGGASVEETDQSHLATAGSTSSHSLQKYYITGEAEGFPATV
UniProt P16473, sequence (P16473 whole entry, looked up): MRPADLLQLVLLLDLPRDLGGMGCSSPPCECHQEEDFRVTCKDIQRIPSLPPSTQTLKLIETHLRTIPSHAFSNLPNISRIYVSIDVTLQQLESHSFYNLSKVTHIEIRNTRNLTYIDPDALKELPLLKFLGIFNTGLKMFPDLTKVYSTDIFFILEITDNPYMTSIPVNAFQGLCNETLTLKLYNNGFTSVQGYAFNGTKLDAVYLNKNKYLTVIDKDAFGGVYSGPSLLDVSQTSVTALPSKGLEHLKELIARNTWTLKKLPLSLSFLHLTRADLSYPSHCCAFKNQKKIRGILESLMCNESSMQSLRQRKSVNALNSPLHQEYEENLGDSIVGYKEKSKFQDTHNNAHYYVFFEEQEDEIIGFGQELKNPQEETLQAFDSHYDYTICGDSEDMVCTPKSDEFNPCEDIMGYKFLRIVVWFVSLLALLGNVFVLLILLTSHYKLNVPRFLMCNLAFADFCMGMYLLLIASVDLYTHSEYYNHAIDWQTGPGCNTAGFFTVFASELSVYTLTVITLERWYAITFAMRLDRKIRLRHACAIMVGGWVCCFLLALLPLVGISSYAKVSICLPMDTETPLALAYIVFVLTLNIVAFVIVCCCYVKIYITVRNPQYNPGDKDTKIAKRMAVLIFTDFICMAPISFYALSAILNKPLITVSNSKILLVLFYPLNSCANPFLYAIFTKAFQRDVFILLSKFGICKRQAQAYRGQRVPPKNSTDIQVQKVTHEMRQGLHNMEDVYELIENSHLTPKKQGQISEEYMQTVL

CC[C@H](C)C(=O)O[C@H]1C[C@@H](C)C=C2C=C[C@H](C)[C@H](CC[C@@H]3C[C@@H](O)CC(=O)O3)[C@H]21
Potency [1]: inconclusive: 78 µM [cytotoxic, single point] | Potency [2]: inconclusive: 55.2 µM [cytotoxic, partial curve] | Potency [3]: inconclusive: 31.1 µM [inhibitor, full curve, poor fit] and inconclusive: 15.3 µM [inhibitor, full curve, poor fit] and inconclusive: 33.5 µM [inhibitor, single point] | Potency [4]: inactive | Potency [5]: active: 39.1 µM and inconclusive: 24.2 µM [cytotoxic, partial curve] and active: 26.6 µM | Potency [6]: inconclusive: 78 µM [activator, single point]

CCCCCCCCCCCCCCCC[N+](C)(C)Cc1ccccc1
Potency [1]: active: 50.1 µM and active: 55.5 µM and active: 26.6 µM | Potency [2]: active: 70.8 µM and active: 35 µM and inconclusive: 29.8 µM [cytotoxic, single point] | Potency [7]: inconclusive: 79.4 µM [cytotoxic, single point] and inconclusive: 44.1 µM [cytotoxic, partial curve] | Potency [8]: inconclusive: 79.4 µM [inhibitor, single point] and inconclusive: 69.8 µM [cytotoxic, single point] | activity, negative = inhibition [8]: inconclusive: -28% [at 42.5 µM] | Potency [9]: active: 14.1 µM and active: 22.1 µM and active: 11.9 µM | Potency [5]: active: 35.5 µM and active: 17.5 µM and active: 10.6 µM

c1ccc2[nH]ccc2c1
Potency [1]: active: 9.53 µM | Potency [2]: inconclusive: 13.5 µM [cytotoxic, single point] | Potency [7]: inconclusive: 16.9 µM [cytotoxic, full curve] | Potency [8]: inconclusive: 53.6 µM [rising, partial curve] | Potency [10]: active: 7.57 µM

C#CC1(O)CC[C@H]2[C@@H]3CCC4=CCCC[C@@H]4[C@H]3CC[C@@]21C (some centres undefined)
Potency [1]: inconclusive: 68.6 µM [cytotoxic, single point] and inconclusive: 33.5 µM [cytotoxic, single point] | Potency [11]: inconclusive: 68.6 µM [cytotoxic] and active: 29.8 µM | Potency [2]: inconclusive: 68.6 µM [cytotoxic, single point] and active: 26.6 µM | Potency [7]: inconclusive: 68.6 µM [cytotoxic, single point] and inconclusive: 33.5 µM [cytotoxic, single point] | Potency [5]: active: 61.1 µM and active: 26.6 µM | Potency [6]: active: 611 nM and active: 473 nM

CCCCCCCCCCCCCCCCCC[N+](C)(C)C
Potency [1]: inconclusive: 61.3 µM [cytotoxic, single point] | Potency [11]: inconclusive: 61.3 µM [cytotoxic, single point] | Potency [7]: inconclusive: 61.3 µM [cytotoxic, single point] | Potency [3]: active: 274 nM | Potency [4]: inconclusive: 61.3 µM [cytotoxic, partial curve] | Potency [8]: inconclusive: 54.6 µM [inhibitor, partial curve] | Potency [12]: inconclusive: 77.2 µM [cytotoxic, single point]

Nc1ccc2c(c1)C(=O)c1ccccc1C2=O
Potency [13]: inactive | Potency [14]: active: 951 nM and active: 770 nM | Potency [15]: inconclusive: 6.73 µM [activator, partial curve] and active: 864 nM | Potency [10]: inconclusive: 26.8 µM [cytotoxic] and inconclusive: 27.3 µM [cytotoxic, partial curve] | Potency [9]: inconclusive: 1.69 µM [cytotoxic, full curve, poor fit] and inconclusive: 9.69 µM [cytotoxic, full curve] | Potency [6]: inconclusive: 1.72 µM [activator, partial curve] | Potency [12]: inconclusive: 47.7 µM [cytotoxic, partial curve]

O=C(O[C@@H]1Cc2c(O)cc(O)cc2O[C@@H]1c1cc(O)c(O)c(O)c1)c1cc(O)c(O)c(O)c1
Potency [1]: inconclusive: 54.6 µM [cytotoxic, partial curve, poor fit] and inconclusive: 58.9 µM [cytotoxic, partial curve, poor fit] | Potency [7]: inconclusive: 34.4 µM [cytotoxic, partial curve] | Potency [3]: active: 27.4 µM and inconclusive: 37.2 µM [inhibitor, partial curve] | activity, negative = inhibition [8]: inconclusive: -34.6% | Potency [10]: inconclusive: 58.9 µM [cytotoxic, partial curve] | Potency [9]: inconclusive: 274 nM [cytotoxic, single point] | Potency [16]: inconclusive: 26.3 µM [partial curve] | cAMP activity change [16]: inconclusive: -2.68% | Potency [17]: inconclusive: 26.3 µM [falling, partial curve] | activity change, negative = inhibition [17]: inconclusive: 3.1% | Potency [12]: active: 54.6 µM and active: 46.8 µM
